Reference: the supplement of paper PMC11417369
± gives the standard deviation of the averaged measurements. The list shows a part of the results.

These sequences were tested on PfAP2-EXP AP2 domain (GST-tagged) (assay: gcPBM binding intensity (ln(normalized median fluorescence intensity)); higher = stronger DNA binding).
In short: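 For binding intensity, the highest Masliner-normalised natural-log median intensity across replicate spots of either probe orientation was taken. Protein bound to the array was stained with Alexa488 anti-GST antibody and scanned at 488 nm. The protein, GST-tagged P. falciparum DNA-binding domains from E. coli at about 25 μg on average, had been applied for 1 h to an Agilent 4 × 180k array of primer-extended double-stranded 36-bp intergenic genomic probes and negative controls.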

First: ATAAATATATATTTACGTACATATTATATATATATA [XGTACX_site6172]
Second: ACATATAAATTGTGTACACATATATATATATTTTTT [CACACA_site5946]
The “gcPBM binding intensity (ln)” value of the first is higher: 9.68 ± 0.35 for the first, 8.62 ± 0.18 for the second.

“GTTTTGTACATATTCTCACACATATAAAAATACCCA [CACACA_site4446]” and “AAGCATTTAATGTTTTATATAACATGTATTTTTTAT [CACACA_negctrl_site673]” are within error of each other in “gcPBM binding intensity (ln)” value: 8.96 ± 0.36 for the first, 8.38 ± 0.45 for the second.

First: TTCATAATAAAAAGGTGTACATATATATATATATAT [XGTACX_site2829]
Second: TTTATATGTATACAAACATATAAATATAAATGTATT [TGCATGCA_negctrl_site346]
The “gcPBM binding intensity (ln)” value of the first is higher: 10.34 ± 0.085 for the first, 8.3 ± 0.4 for the second.

“TATATATACATATACACACACACACCGATATATATA [CACACA_site8706]” and “TGTTCTATGATTTGTACACACTTTTTTTTAAAATGC [CACACA_site5558]” are within error of each other in “gcPBM binding intensity (ln)” value: 8.76 ± 0.39 for the first, 8.8 ± 0.35 for the second.

“ATATTACGCACAAAAAAAAAAAAAAAAAAAAAAAAA [CACACA_negctrl_site941]” and “AAAATTAAAATTTTCACACAGATATATTTACAATTT [CACACA_site5692]” are within error of each other in “gcPBM binding intensity (ln)” value: 8.33 ± 0.071 for the first, 8.07 ± 0.4 for the second.

“ATGATGTGCTTTAAAAGTACTTAAGTTATATTCTTT [XGTACX_site7127]” and “AAAAAGAAGAATAATACACACAAATTACTTTATATA [CACACA_site6984]” are within error of each other in “gcPBM binding intensity (ln)” value: 8.59 ± 0.26 for the first, 8.46 ± 0.38 for the second.

“TTCGTAACTGATTCAACACACAAAAGGGGGAAAATT [CACACA_site1754]” and “TAAATTAAAAAAAATACACACACACCGACACATATA [CACACA_site9084]” are within error of each other in “gcPBM binding intensity (ln)” value: 9.25 ± 0.23 for the first, 8.86 ± 0.42 for the second.

“TATGTTATATAATATTGTACACAAAATGGTTTCTAT [XGTACX_site7686]” and “ATATTATAGAAATATACACACATTGTTTTATAGCAT [CACACA_site7177]” are within error of each other in “gcPBM binding intensity (ln)” value: 8.48 ± 0.33 for the first, 8.45 ± 0.39 for the second.

Going from “ATATATATATATATGTGTACATATATTAAGATATAT [XGTACX_site1065]” to “AATTACAAATATTCATGTACATATTTATAAATACAT [XGTACX_site5430]”, the “gcPBM binding intensity (ln)” value falls from 10 ± 0.3 to 8.49 ± 0.3.

“CACAGTGATATAAAAACACACATGAATTCTAATTTC [CACACA_site6884]” and “AGGTATGTCTATAAATGTACATATGAGTTCAATTTC [XGTACX_site2244]” are within error of each other in “gcPBM binding intensity (ln)” value: 8.3 ± 0.21 for the first, 8.61 ± 0.38 for the second.

“AAATATATATAAACAAGTACATATTTAAAAAAAGGA [XGTACX_site2631]” and “CATAAAAATATTAATAAACACACAATCAGATATTGA [CACACA_site9032]” are within error of each other in “gcPBM binding intensity (ln)” value: 8.66 ± 0.46 for the first, 8.59 ± 0.42 for the second.

“ATAACACAAAATTGTTGTACACGTGTTAATAAGTGA [XGTACX_site4452]” and “ATATATATGAAACACACACACAAAAAAAAAAAAAAA [CACACA_site3647]” are within error of each other in “gcPBM binding intensity (ln)” value: 9.12 ± 0.33 for the first, 8.24 ± 0.59 for the second.

“AATATTTATATAAATGCATGCTGATACAACAGTCTT [TGCATGCA_site21]” and “TAAAGTTATGCAATAACACACATATACAATACATAT [CACACA_site6698]” are within error of each other in “gcPBM binding intensity (ln)” value: 9.1 ± 0.38 for the first, 8.78 ± 0.47 for the second.

“TATATAACCGAGTGCACACACAAAAAAAAAGTGAAC [CACACA_site6806]” and “AGGAAACAAGAAATGAAGAATCATGTAGAAGGCCCA [GTGCAC_negctrl_site187]” are within error of each other in “gcPBM binding intensity (ln)” value: 9.2 ± 0.47 for the first, 8.65 ± 0.5 for the second.

Going from “TATTAAATATTGTATACATGCAAATACTAGAAAATT [TGCATGCA_site370]” to “AATAATATAAATATTACACACTAATTGTATTATAGA [CACACA_site6347]”, the “gcPBM binding intensity (ln)” value falls from 9.07 ± 0.35 to 8.11 ± 0.4.

“TTTGCGTAGAAATGTGTGCACTGATATTTATAATAA [GTGCAC_site9526]” and “ATTTTCCTTTTACCACGTACACATAAAAACGTTATA [XGTACX_site3595]” are within error of each other in “gcPBM binding intensity (ln)” value: 8.905 ± 0.078 for the first, 8.88 ± 0.47 for the second.

“TGAACTCATAGGAAAACACACATATGGGTAATATAT [CACACA_site187]” and “AAAAAAAATCAAATGGGTACTTATTCTTAATAATAT [XGTACX_site3792]” are within error of each other in “gcPBM binding intensity (ln)” value: 8.82 ± 0.44 for the first, 8.35 ± 0.54 for the second.

“ATATATACATACAAATTAATTACGAGGAATATATTA [XGTACX_negctrl_site417]” and “ACATATTCATATGGAAGTACGATAATGTAGTCATAT [XGTACX_site7080]” are the same in “gcPBM binding intensity (ln)” value: 8.64 ± 0.36 for the first, 8.64 ± 0.37 for the second.

Going from “ATAAATATATTTAAATGTACATAATATATATATATA [XGTACX_site5137]” to TATATATATTTAAAGGTGCAGATGCCAGTGTATATT, the “gcPBM binding intensity (ln)” value falls from 9.96 ± 0.18 to 8.89 ± 0.24.

Going from “AATGAACTCACGAGCACACACACACCGATATATATA [CACACA_site4710]” to “TATACATATATATACACACACACATATATATATATA [CACACA_site1299]”, the “gcPBM binding intensity (ln)” value rises from 8.82 ± 0.42 to 10 ± 0.27.

“GTAAAAAAATTAAAAATTAACAAGGAATTAAGTATA [CACACA_negctrl_site1688]” and “GGAACTTATTTTTATACACACATATGTGCATATTAT [CACACA_site629]” are within error of each other in “gcPBM binding intensity (ln)” value: 8.38 ± 0.35 for the first, 8.81 ± 0.35 for the second.

“ATCATAAATATAGCAACACACGGATTACATAAAATA [CACACA_site2796]” and “TTGTAATAAATAAAAGTGCAGATATGGTTCCACTAA [GTGCAC_site9942]” are within error of each other in “gcPBM binding intensity (ln)” value: 8.9 ± 0.5 for the first, 8.39 ± 0.11 for the second.

First: TTAAAAAAATAATTAACACACACATGTATATCTATA [CACACA_site9026]
Second: TATATATATACCAACACACATACATATATATATATA [CACACA_site1795]
The “gcPBM binding intensity (ln)” value of the first is lower: 8.21 ± 0.42 for the first, 10 ± 0.27 for the second.

“TGAATAAATATATATACACACATATCTGTATTTATT [CACACA_site4991]” and “AAATTTGGCAGACACACACACACACGCACACGCACA [CACACA_site6423]” are within error of each other in “gcPBM binding intensity (ln)” value: 8.32 ± 0.27 for the first, 8.66 ± 0.5 for the second.

First: CCCTCCCCATGTTTAGTGCAAAAATATTTGAAATTG [GTGCAC_site9873]
Second: TATGAAATTAGAATTACACACAGGAAAATAAAATGC [CACACA_site6822]
The “gcPBM binding intensity (ln)” value of the first is higher: 9.98 ± 0.18 for the first, 8.97 ± 0.37 for the second.

“AAAATATATATTTGTTGTACAATATTAATTATTAAA [XGTACX_site1612]” and “CCCAAAAAAAATTTATGTACTTATTAAATATATATA [XGTACX_site6455]” are within error of each other in “gcPBM binding intensity (ln)” value: 8.66 ± 0.4 for the first, 9.01 ± 0.79 for the second.

Going from TTTATATAAATTTAAGTGCAAAATGAACAAGTGAAA to “TTCAATGCTAATTTATGTACATATGTATATAAAATA [XGTACX_site8335]”, the “gcPBM binding intensity (ln)” value falls from 9.13 ± 0.21 to 8.2 ± 0.4.

Compared with “TGCAAAGGTGAAAGAACACACAAAAAAAAAAAAAAA [CACACA_site4024]”, “TTCAAAGGGAAATTAACACACACATATATATATATA [CACACA_site8777]” is higher in “gcPBM binding intensity (ln)” value: 8.27 ± 0.56 for the first, 10.1 ± 0.31 for the second.

“AATTTTAGATTTAGCACACATTTTTTTTTTTTTTTT [CACACA_site6105]” was tested, and the “gcPBM binding intensity (ln)” value was 8.53 ± 0.14.
